Results taken from patent US4935362A, “BMY-28121, a new antitumor antibiotic” (Bristol-Myers Company, priority 1987, dated 1990).
≈ marks a conversion by molar mass, not a printed value.

Test system: Proteus vulgaris A9436
Assay type: cell-based
Conditions: nutrient agar, 10^4 CFU/ml

Work on `CC1(C)S[C@@H]2[C@H](NC(=O)[C@H](N)c3ccccc3)C(=O)N2[C@H]1C(=O)O` [Ampicillin, reference compound] yielded an MIC of 0.4 µg/mL (≈ 1.14 µM).
